This note sets out measurements from ChEMBL document CHEMBL4888484, “Replenishing the malaria drug discovery pipeline: Screening and hit evaluation of the MMV Hit Generation Library 1 (HGL1) against asexual blood stage Plasmodium falciparum ,using a nano luciferase reporter read-out” (2022).

About 540 (0.36%) of roughly 150,000 compounds showed an effect of 50% or more. The list shows a part of the results.

The test system of this experiment is Plasmodium falciparum. The experiment is described as follows: Primary screen in NF54 nanoGlo assay, in single point, at 2uM, 72h; a lower Z score goes with more inhibition. Format: functional, Erythrocyte. Particulars: timepoint 72 hour.
For the molecule `CCC(NC(=O)Cc1ccncc1)C(O)c1c(F)cccc1F` (configuration not stated), the “% Inhibition” value stood at 5% and the Z score is -0.93.
On the same counts, the results for `CC(C)CCNC(=O)c1nc(-c2ccc3c(c2)OCC(=O)N3C)no1` are -16% and 1.88.
For `Cc1ccc(N2C[C@@H](C(=O)Nc3ccccc3C(=O)NCCc3ccccc3)CC2=O)cc1`, the “% Inhibition” value came to 12% and the Z score was -1.47.
Consider `Cc1cc(C(=O)NCc2ccc(-c3ccc4c(c3)CCO4)cc2)on1`, for which the “% Inhibition” value was -4% and the Z score was 0.47.
On to `O[C@@H](Cc1ccccc1)c1ncnn1CCc1ccccc1`, for which the “% Inhibition” value is -10% and the Z score is listed as 2.
Take `CCOc1ncccc1-c1cn(C(C)C)nc1C`: the “% Inhibition” value was -7% and the Z score is 1.27.
Regarding `CCC1(CC)C(NC(=O)C2CCC(C(=O)O)CC2)C(C)C1OC` (configuration not stated), the “% Inhibition” value is -3% and the Z score is listed as 0.32.
`Cc1ccc2c(c1)C[C@@H](C(=O)NCCc1csc(-c3ncccn3)n1)N2`: the “% Inhibition” value is 3% and the Z score was -0.5.
In the case of `O=C(Nc1ccc(Oc2nncc3ccccc23)cc1)c1ccon1`, the “% Inhibition” value was 28% and the Z score is listed as -3.76.
For `O=C(NCc1cccnc1)[C@]1(F)CCCN(S(=O)(=O)c2cccc3nsnc23)C1`, the “% Inhibition” value is -10% and the Z score was 0.85.
On to `COc1cccc(-n2cc(NC(=O)[C@@]3(C)CCC(=O)NC3)nn2)c1`, for which the “% Inhibition” value is 13% and the Z score was -2.46.
Consider `COc1ccc2c(c1)Cc1c-2nc(N)c(C#N)c1-c1ccncc1`, for which the “% Inhibition” value was -2% and the Z score is listed as 0.23.
On the same counts, the results for `CC(C)N1CCN(C(=O)c2cnn(-c3ncc4c(n3)-c3ccccc3CCC4)c2C2CC2)CC1` are 19% and -2.37.
Turning to `O=C(CC(=O)N1CCC(Cc2ccccc2)CC1)N1CCC(Cc2ccccc2)CC1`, the “% Inhibition” value is listed as -11% and the Z score worked out at 1.38.
On the same counts, the results for `FC(F)(F)c1cccc(Nc2c3ccccc3nc3ccccc23)c1` are 10% and -0.85.
Turning to `CC(C)C[C@H]1CCCCCN1C(=O)c1cc(OC(F)F)n(C)n1`, the “% Inhibition” value is reported as 12% and the Z score is on record as -2.31.
For `CN(CC1OCc2ccccc2CO1)C1CCCCC1`, the “% Inhibition” value is given as -3% and the Z score was 0.61.
On the same counts, the results for `c1ccc(-c2nc([C@H]3CCOC3)no2)c(-c2nnn[nH]2)c1` are -11% and 2.34.
In the case of `CC(C)c1cc(NS(=O)(=O)c2cncc(Cl)c2)on1`, the “% Inhibition” value is listed as -8% and the Z score came to 0.95.
Turning to `CC1CCN(c2nnc(-n3cccc3CN3CCCC3)s2)CC1`, the “% Inhibition” value is -5% and the Z score came to 0.52.
For the molecule `O=C(c1csc2c1CCCC2)N1CCCCC1`, the “% Inhibition” value is given as 16% and the Z score is reported as -1.86.
With `CC1(C)CC(O)(C(=O)NCCCc2nc[nH]n2)C1`, the “% Inhibition” value was 5% and the Z score was -0.8.
With `O=C(c1ccon1)N1CCc2ncnc(N3CCC[C@H](CO)C3)c2CC1`, the “% Inhibition” value is given as -11% and the Z score worked out at 1.82.
On the same counts, the results for `COc1ccc(C[C@@H]2NC(=O)[C@H](C)NC2=O)cc1` are -13% and 1.28.
On the same counts, the results for `COc1ccc2c(O)nn(S(=O)(=O)C[C@H]3CCCO3)c2c1` are -13% and 1.81.
`COc1ccc(Oc2cn[nH]c2-c2ccc(OCc3ccc(Cl)c(Cl)c3)cc2O)cc1`: the “% Inhibition” value is listed as -2% and the Z score stood at 0.23.
On the same counts, the results for `O=C(c1ccc(F)cc1)N1CCC(c2nc(-c3ccc4c(c3)OCO4)no2)CC1` are -13% and 2.29.
For the molecule `O=C(c1cn2c3c(cccc3c1=O)CCC2)N1CCN(c2ccccc2F)CC1`, the “% Inhibition” value is -1% and the Z score stood at 0.18.
In the case of `OC[C@H]1C=C[C@@H](NCc2cccc(Cl)c2)C1`, the “% Inhibition” value was -2% and the Z score worked out at 0.3.
For `O=C(C[C@@H]1NC(=O)NC1=O)N[C@@H]1C[C@H]1c1cccc(Cl)c1`, the “% Inhibition” value is recorded as -4% and the Z score stood at 0.62.
With `CS(=O)(=O)N(Cc1csc(-c2cccs2)n1)C1CCN(C(=O)c2ccccc2)CC1`, the “% Inhibition” value is reported as -16% and the Z score is 2.07.
On the same counts, the results for `CCn1c([C@H](O)c2ccccc2)n[nH]c1=O` are -5% and 0.66.
Consider `Nc1nccc(N2CCC(n3nccc3NC(=O)c3cccc(F)c3)CC2)n1`, for which the “% Inhibition” value is reported as -3% and the Z score is given as 0.42.
On the same counts, the results for `Cc1cccc(Oc2nc3ccccc3n3c(=O)n(CC(=O)Nc4ccc5c(c4)OCCO5)nc23)c1C` are -2% and 0.22.
Take `CCCCCC(=O)N(CC(=O)N(Cc1ccccc1)Cc1cccn1Cc1cccc(OC)c1)[C@@H](C)CC`: the “% Inhibition” value is on record as -8% and the Z score stood at 1.08.
In the case of `COc1ccc(CN2CC=C[C@@H]2C(C)C)cc1F`, the “% Inhibition” value worked out at 4% and the Z score is recorded as -0.73.
`Cc1cccc(N2CCN(c3ccc(NS(=O)(=O)c4cccc(F)c4)cc3C(=O)O)C[C@@H]2C)c1`: the “% Inhibition” value was -6% and the Z score is 0.56.
Take `O=C([C@@H]1Cc2ccccc2O1)N1CCC(n2ncc3c2CNC3)CC1`: the “% Inhibition” value was -9% and the Z score is on record as 1.27.
With `CNC(=O)CC(=O)NC[C@H]1COC2(CCCCCC2)O1`, the “% Inhibition” value was 30% and the Z score was -3.34.
Consider `Cc1ccc(O[C@@H](C)CNC(=O)NCc2cnn(C)c2)cc1`, for which the “% Inhibition” value is -5% and the Z score was 0.9.
As for `CC(=Cc1csc(-c2ccccn2)n1)c1nc(C)c(C#N)c(=O)[nH]1`, the “% Inhibition” value was 13% and the Z score was -1.76.
